# According to the supplement of paper PMC12217912:
# The list shows a part of the results. The full chains were built here from the parent and the listed change. Values near 0.05 are background.
# B1: TEV protease; numbered along this chain (parent)
# chain: MGESLFKGPRDYNPISSSICHLTNESDGHTTSLYGIGFGPFIITNKHLFRRNNGTLVVQSLHGVFKVKDTTTLQQHLVDGRDMIIIRMPKDFPPFPQKLKFREPQREERICLVTTNFQTKSMSSMVSDTSCTFPSGDGIFWKHWIQTKDGQCGSPLVSTRDGFIVGIHSASNFTNTNNYFTSVPKNFMELLTNQEAQQWVSGWRLNADSVLWGGHKVFMVKPEEPFQPVKEATQL
# Variants of: B1
# Test: raw area under fraction-flipped curve 0-4 h after induction (AUC4h, not background-subtracted), DNA-recorder readout of cleavage of the substrate (dimensionless); higher = more cleavage of the substrate by the protease variant
# Conditions: temperature: 34 °C; time window: 0-4 h after rhamnose induction
# Description: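 In vivo DNA recorder in E. coli TOP10(DE3) ΔrhaA at 34 °C. Each TEVp single-site mutant (parent TEVp 0) is paired with a single-site variant of the 7-mer TEVs (canonical ENLYFQ|S). The substrate sits between flexible linkers in a Bxb1-sfGFP-TEVs-SsrA fusion, so cleavage stabilises Bxb1 and speeds flipping of a recombination array, read by NGS. The value is the raw area under the fraction-flipped curve over 0-4 h after rhamnose induction (AUC4h), with ≥20 reads per time point. It is not background-subtracted; inactive controls average about 0.047.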
# 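Also: Bxb1 expression induced with 0.2% (w/v) L-rhamnose at OD600 near 0.5, cultures sampled hourly, flipped fraction per protease–substrate barcode pair counted by paired-end Illumina sequencing.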
Variant,area with substrate EALYFQS,area with substrate ECLYFQS,area with substrate EDLYFQS,area with substrate EELYFQS,area with substrate EFLYFQS,area with substrate EGLYFQS,area with substrate EHLYFQS,area with substrate EILYFQS,area with substrate EKLYFQS,area with substrate ELLYFQS,area with substrate EPLYFQS,area with substrate EQLYFQS,area with substrate ERLYFQS,area with substrate ESLYFQS,area with substrate ETLYFQS,area with substrate EVLYFQS,area with substrate EWLYFQS,area with substrate EYLYFQS,area with substrate EMLYFQS
T44R,0.05,0.0419,0.0382,0.0436,0.0136,0.0579,0.049,0.0521,0.0357,0.0388,0.0527,0.0453,0.0473,0.0466,0.0739,0.0534,0.0523,0.0338,–
R51I,0.0934,0.0393,0.0879,–,0.0835,0.0781,–,0.05,0.0886,–,–,–,0.0904,0.0813,0.0764,0.13,–,0.0522,0.0902
N45L,0.0587,0.064,0.0466,–,–,0.0595,0.05,0.0366,0.0789,0.0545,0.0684,0.0617,0.0926,0.0636,–,0.0549,0.0598,0.0624,0.0676
N45W,0.0596,0.0637,0.0566,0.0615,0.062,0.0539,0.0527,0.0433,0.0686,0.0552,0.103,0.0527,0.0616,0.0583,–,0.0578,0.0585,0.0603,–
N45Y,0.0536,0.0637,0.0562,0.0595,0.052,0.0567,0.0336,0.06,0.06,0.0544,0.0583,0.064,0.0659,0.0559,0.0582,0.0521,0.0534,–,0.0599
S16F,0.124,0.0969,0.1,0.112,0.0925,0.0945,–,0.11,0.0665,–,0.0927,0.145,0.109,0.101,–,0.113,–,–,0.103
S16K,0.128,0.11,0.152,0.153,0.0779,–,–,0.1,0.152,–,–,0.144,0.114,0.102,–,0.102,0.0852,0.119,0.17
H47G,0.0787,0.054,0.051,0.061,0.0669,0.0581,0.0542,0.0463,0.0492,0.0665,0.0476,0.0561,0.0488,0.0603,0.0564,0.0578,0.0426,0.0626,0.061
S32K,0.148,0.104,–,–,–,0.135,–,0.113,0.167,–,–,–,0.123,0.114,–,0.128,0.126,0.0951,–
S32F,0.111,0.101,–,–,–,0.0784,–,–,–,0.0832,0.121,0.101,–,0.0831,–,0.0942,0.0903,0.124,0.0909
S32T,0.112,0.098,0.145,0.108,0.109,–,0.103,–,0.09,0.0818,0.0904,0.114,0.103,0.11,–,0.108,0.103,0.1,–
S32V,0.0978,0.0946,0.107,0.113,0.092,–,0.101,0.0748,0.0998,–,0.102,0.0937,0.113,0.0942,0.106,0.0362,0.113,–,0.0931
F41D,0.094,0.0829,0.103,0.119,0.0625,0.0719,0.0982,0.0729,0.0612,0.074,–,0.111,0.111,0.0848,0.0561,0.0761,–,0.0644,0.0916
L33K,0.057,–,0.0584,0.0735,0.0559,–,0.0509,0.0614,0.0655,–,–,0.0666,–,0.0602,0.0888,0.0572,–,0.0767,0.0469
L33S,0.108,0.08,0.111,0.0972,0.0922,0.0741,0.0977,0.0871,0.12,0.079,0.088,0.101,0.0948,0.101,0.137,0.0735,0.0775,0.12,–
N24S,0.0871,0.0895,–,0.0697,–,–,0.0787,–,0.0764,0.0673,–,0.0967,–,0.0601,–,0.0787,–,0.0727,0.0673
N24F,0.0706,0.092,0.0896,0.102,0.0839,0.0583,0.0101,0.0723,0.0875,0.079,–,0.103,–,0.0845,–,0.0473,–,0.0777,0.0998
N24V,0.085,0.0734,0.098,0.105,–,0.0853,–,0.0854,0.0905,0.0851,–,0.0692,0.0849,0.0842,0.0834,0.0763,0.076,0.0753,0.071
N24A,0.108,0.0746,0.0839,–,–,0.0759,–,0.0843,0.0993,0.116,0.153,0.0862,0.0724,0.0856,0.0822,0.0793,0.078,0.0839,0.0774
H29F,0.115,–,–,0.108,–,0.132,0.114,0.0749,0.114,–,–,0.0993,–,0.112,–,0.117,–,–,0.107
H21E,0.0961,0.0975,0.0712,0.0936,0.0654,0.0839,0.0628,0.0735,0.108,0.0585,0.102,0.0405,0.089,0.0911,0.12,0.0707,–,0.09,0.0993
H21T,0.0997,0.0868,0.098,0.113,0.0871,0.0767,0.12,0.0945,0.0903,0.101,0.101,0.113,0.104,0.0885,–,0.097,0.0935,0.0727,0.0909
H21F,0.122,0.0887,0.149,0.0931,0.0724,0.0824,0.0669,0.0823,0.11,–,–,0.109,–,0.0932,–,0.0644,0.0932,–,0.102
